Assay results as given in PubChem BioAssay AID504845 (National Center for Advancing Translational Sciences (NCATS), 2011).
“And” between values parts separate entries of the source, which are not always exact repeats. Equal values may be shown once. The whole screen tested about 390,000 compounds, of which about 150 (0.038%) were called active. Inconclusive results, whose numbers are uncertain, are shown with a selection of clear calls. Calls follow the shape of the dose curve; as a rule, active = well fitted inhibition curve with a large enough effect; inconclusive = small, poorly fitted or top-dose-only effect; inactive = no such curve, though single readings can be large or run the other way. Where the call is inconclusive, the potency comes from a doubtful curve fit.
% is scaled to controls: 0 for no effect and ±100 for the full control effect; potency is read from the fitted curve at half-maximal effect; tags tell the direction and shape of the fitted curve.
Also: nearly all actives have a fitted effect of over 75% in size.

The compounds below were run against Regulator of G-protein signaling 4 (Homo sapiens) (UniProt P49798) (assay: Inhibitors of Regulator of G Protein Signaling (RGS) 4: qHTS). Conditions: Transcreener GDP fluorescence polarization, RGS4-accelerated GTP hydrolysis; series mostly up to 114 µM; activity change, negative = inhibition: at the top concentration.
UniProt P49798, sequence (P49798 whole entry, looked up): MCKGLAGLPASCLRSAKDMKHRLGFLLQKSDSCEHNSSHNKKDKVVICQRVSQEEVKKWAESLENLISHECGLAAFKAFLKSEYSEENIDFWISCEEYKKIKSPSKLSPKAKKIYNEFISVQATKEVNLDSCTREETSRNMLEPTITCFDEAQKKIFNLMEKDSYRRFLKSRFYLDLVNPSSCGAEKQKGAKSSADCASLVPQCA
Method in brief: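 MLSMR compounds (23 nl, pin-transferred) preincubated 10 min at room temperature with a 500nM (2x) first reagent, then RGS4 at 900nM (2x) plus Transcreener GDP mix added; fluorescence polarization (620/688 nm) read before and after 90 min at 30 °C.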
`CCOC(=O)CNc1ccc(C(=O)OCC)cc1[N+](=O)[O-]` was tested, and the “activity change, negative = inhibition” value was inactive: -13.8%.
For `CC(=O)N(C1CC(C)C(C#N)(C#N)C1(C#N)C#N)N(C)C` (stereo unspecified), the Potency was inconclusive: 44.7 µM [inhibitor, partial curve, poor fit].
`O=c1cc(N2CCOCC2)oc2c(-c3ccccc3)cccc12` was tested, and the Potency was inconclusive: 18.9 µM [inhibitor, partial curve, poor fit].
In the case of `C=CCn1c(N)c(-c2nc3ccccc3n2C)sc1=S`, the Potency is reported as inconclusive: 17.8 µM [inhibitor, full curve, poor fit].
In the case of `CCOC(=O)c1cnc(SCC(=O)c2ccccc2)nc1N`, the Potency is reported as inconclusive: 79.4 µM [inhibitor, partial curve, poor fit].
`CC(C)OCCCNC(=O)c1c(N)n(/N=C/c2ccccn2)c2nc3ccccc3nc12` was tested, and the “activity change, negative = inhibition” value was inactive: -6.15%.
`O=C(O)C1CN(CCCP(=O)(O)O)CCN1` (stereo unspecified) was tested, and the Potency was inconclusive: 0.597 µM [inhibitor, full curve, poor fit].
In the case of `CCc1cc2c(=O)n(Cc3ccco3)c(SCC(=O)N3CCCc4ccccc43)nc2s1`, the Potency is reported as inconclusive: 79.4 µM [inhibitor, partial curve, poor fit].
In the case of `Cc1cccc(/C=C/C(=O)c2ccc([N+](=O)[O-])o2)c1`, the Potency is reported as inconclusive: 100 µM [inhibitor, partial curve, poor fit].
In the case of `Cc1ccc2c(c1)[C@H]1[C@H](CO2)[C@H](c2ccccc2)[C@]2(C)C(=O)N(Cc3ccco3)CC(=O)N12`, the Potency is reported as inconclusive: 79.4 µM [inhibitor, single point].
For `COC(=O)C(CC(=O)c1ccc(C)cc1)n1nc(C)cc1C` (stereo unspecified), the Potency was inconclusive: 39.8 µM [inhibitor, partial curve, poor fit].
With `CCOc1ccc(S(=O)(=O)NCCC(=O)N2CCN(c3ccc(OC)cc3)CC2)cc1` the Potency was inconclusive: 89.1 µM [inhibitor, partial curve, poor fit].
In the case of `N=c1n(CCCOc2ccc(F)cc2)c2ccccc2n1CC(N)=O`, the “activity change, negative = inhibition” value is reported as inactive: -9.86%.
With `COc1ccc(N2C(=O)/C(=C/c3cccs3)NC2=S)cc1` the Potency was inconclusive: 79.4 µM [inhibitor, partial curve, poor fit].
For `Cc1ccc(/C=N/N=C/c2ccc(C)cc2)cc1`, the Potency was inconclusive: 50.1 µM [inhibitor, partial curve, poor fit].
`Cc1ccc2nc(SCC(=O)N3CCCC3)nc(=O)n2c1` was tested, and the Potency was inconclusive: 89.1 µM [inhibitor, single point].
`CN1CCc2c(sc3c2C(=O)NC(c2cccc(OC(=O)c4cccs4)c2)N3)C1` (stereo unspecified) was tested, and the Potency was inconclusive: 44.7 µM [inhibitor, partial curve, poor fit].
With `Cc1nn2c(-c3cccc(NC(=O)CSc4nc5ccccc5o4)c3)nnc2c2ccccc12` the Potency was inconclusive: 79.4 µM [inhibitor, partial curve, poor fit].
For `CCCCC12CN3CC(C)(CN(C1)C3c1c(C)[nH]c(=O)[nH]c1=O)C2=O` (stereo unspecified), the “activity change, negative = inhibition” value was inactive: -4.9%.
With `Cc1cccc(Cn2c(C)c(C)c3cc(C(=O)NCc4ccc(C)o4)ccc32)c1` the Potency was inconclusive: 79.4 µM [inhibitor, single point].
`CCCSc1cc(NCCOC(=O)CCC)c([N+](=O)[O-])c2nonc12` was tested, and the Potency was inconclusive: 79.4 µM [inhibitor, partial curve, poor fit].
`O=C(Nc1nnc(COc2ccc(Cl)cc2)s1)c1ccco1` was tested, and the Potency was inconclusive: 100 µM [inhibitor, partial curve, poor fit].
For `Cc1[nH]nc2c1C(c1cccs1)C(C#N)=C(N)O2` (stereo unspecified), the Potency was inconclusive: 89.1 µM [inhibitor, partial curve, poor fit].
`C/C(=N\NC(=O)CC#N)C1COc2ccccc2O1` (stereo unspecified) was tested, and the Potency was inconclusive: 50.1 µM [inhibitor, partial curve, poor fit].
With `O=C(c1ccncc1)N1N=C(c2ccc(Cl)cc2)CC1c1ccccc1O` (stereo unspecified) the “activity change, negative = inhibition” value was inactive: 8.06%.
For `O=C(CSc1nc2[nH]c(=O)cc(O)c2s1)Nc1nccs1`, the “activity change, negative = inhibition” value was inactive: -33.9%.
With `c1ccc(-c2noc(CN3CCN(c4cnccn4)CC3)n2)cc1` the Potency was inconclusive: 50.1 µM [inhibitor, partial curve, poor fit].
`COc1ccccc1N1CCN(C(=O)COc2cc(C)ccc2C)CC1` was tested, and the Potency was inconclusive: 50.1 µM [inhibitor, partial curve, poor fit].
In the case of `O=C1N(Cc2ccccc2)CC2(Br)COCOC12O` (stereo unspecified), the Potency is reported as inconclusive: 20 µM [inhibitor, full curve, poor fit].
`COc1ccc(C2CC(=O)N3CN(C4CCCCC4)CSC3=C2C#N)cc1` (stereo unspecified) was tested, and the Potency was inconclusive: 50.1 µM [inhibitor, partial curve, poor fit].
With `Cc1ccc(-c2cc(C(=O)Nc3ccccn3)c3ccccc3n2)o1` the Potency was inconclusive: 79.4 µM [inhibitor, partial curve, poor fit].
In the case of `c1cc2c(cc1NC1CCCCCC1)OCO2`, the Potency is reported as inconclusive: 50.1 µM [inhibitor, partial curve, poor fit].
In the case of `Cc1c(NC(=O)CC(O)(C(F)(F)F)C(F)(F)F)c(=O)n(-c2ccccc2)n1C`, the “activity change, negative = inhibition” value is reported as inactive: 31.5%.
In the case of `Cc1ccc(NC(=S)NCC23C=CC(O2)C2C(=O)N(c4ccc(C)cc4)C(=O)C23)cc1` (stereo unspecified), the Potency is reported as inconclusive: 39.8 µM [inhibitor, partial curve, poor fit].
`CCCN1CCN(C(=S)Nc2ccc([N+](=O)[O-])cc2)CC1` was tested, and the “activity change, negative = inhibition” value was inactive: -29.4%.
In the case of `N#Cc1c(C#N)c(O)c2ccccc2c1O`, the Potency is reported as inconclusive: 28.2 µM [inhibitor, full curve, poor fit].
`Cc1cc(-c2cc(-c3ccc(Cl)cc3)nc(N)c2C#N)co1` was tested, and the Potency was inconclusive: 28.2 µM [inhibitor, full curve, poor fit].
`O=C1N=C(N2CCCC2)S/C1=C\c1ccccc1` was tested, and the Potency was inconclusive: 79.4 µM [inhibitor, partial curve, poor fit].
`O=C(COC(=O)Cc1cn2ccsc2n1)Nc1nc2ccccc2s1` was tested, and the Potency was inconclusive: 56.2 µM [inhibitor, partial curve, poor fit].
`CC(=O)C1=C(C)NC(SCC(N)=O)=C(C#N)C1CC(C)C` (stereo unspecified) was tested, and the Potency was inconclusive: 89.1 µM [inhibitor, partial curve, poor fit].
For `O=C1NC(=S)S/C1=C\c1cc2ccccc2nc1N1CCCCC1`, the Potency was inconclusive: 89.1 µM [inhibitor, single point].
For `CCCCOc1cccc(C(=O)N(Cc2ccc(Cl)cc2)C2CCS(=O)(=O)C2)c1` (stereo unspecified), the “activity change, negative = inhibition” value was inactive: 11%.
`COc1cc(C(=S)N2CCOCC2)cc(OC)c1OC(=O)Cc1ccc(F)cc1` was tested, and the Potency was inconclusive: 79.4 µM [inhibitor, single point].
`Cc1ccc(C(=O)NC2CC(=O)N(c3ccc4c(c3)OCCO4)C2)cc1[N+](=O)[O-]` (stereo unspecified) was tested, and the Potency was inconclusive: 89.1 µM [inhibitor, single point].
In the case of `Cc1cccc(N2CCN(C(=S)c3ccc([N+](=O)[O-])cc3)CC2)c1`, the Potency is reported as inconclusive: 100 µM [inhibitor, partial curve, poor fit].
In the case of `COC(=O)CN1C(=O)S/C(=C/c2ccc(N3CCCCC3)o2)C1=O`, the Potency is reported as inconclusive: 89.1 µM [inhibitor, partial curve, poor fit].
With `COc1ccc(OC)c(C2C=C(C34CC5CC(CC(C5)C3)C4)NC(=S)N2)c1` (stereo unspecified) the Potency was inconclusive: 35.5 µM [inhibitor, full curve, poor fit].
In the case of `CC(C)C(=O)N(Cc1ccc(F)cc1)Cc1nc2ccccc2c(=O)[nH]1`, the Potency is reported as inconclusive: 79.4 µM [inhibitor, partial curve, poor fit].
With `CC1=C(C(=O)Nc2ccccc2F)C(c2cccs2)C2=C(CCCC2=O)N1` (stereo unspecified) the Potency was inconclusive: 17.8 µM [inhibitor, full curve, poor fit].
For `COc1ccc(CNC(=O)c2oc3c(c2C)-c2nn(Cc4ccccc4Cl)cc2CC3)cc1`, the “activity change, negative = inhibition” value was inactive: 24.5%.
For `N#Cc1cc2c(=O)n3ccccc3nc2n(-c2nnc(SCc3ccc(F)cc3)s2)c1=O`, the “activity change, negative = inhibition” value was inactive: -20.3%.
In the case of `Cc1ccc(C(=O)O)cc1-c1ccc(/C=C2\SC(=O)N(CC(=O)Nc3ccccc3)C2=O)o1`, the Potency is reported as inconclusive: 56.2 µM [inhibitor, partial curve, poor fit].
For `CC1(c2nnc(Cc3ccccc3)o2)CC(c2ccccc2[N+](=O)[O-])=NO1` (stereo unspecified), the Potency was inconclusive: 44.7 µM [inhibitor, partial curve, poor fit].
`Cc1ccc(C(=O)CSc2nnnn2-c2ccccc2)o1` was tested, and the “activity change, negative = inhibition” value was inactive: 0.0911%.
With `COc1ccc(CCNC(=O)CN2CCN(c3ccccc3Cl)CC2)cc1` the Potency was inconclusive: 79.4 µM [inhibitor, single point].
For `CCNc1nc(NCC)n2c(SCC(=O)Nc3cc(Cl)ccc3OC)nnc2n1`, the Potency was inconclusive: 100 µM [inhibitor, single point].
For `COc1ccc(NC(=O)c2c(NCc3ccc(C)o3)sc3c2CCC(C)C3)cc1` (stereo unspecified), the Potency was inconclusive: 79.4 µM [inhibitor, partial curve, poor fit].
With `CCOC(=O)c1ccc(NC(=O)c2nc(S(=O)(=O)Cc3ccccc3)ncc2Cl)cc1` the Potency was inconclusive: 17.8 µM [inhibitor, full curve, poor fit] and inconclusive: 89.1 µM [inhibitor, partial curve, poor fit].
With `Cc1cc(C)n2nc3nc(N4CCCCC4)nc(-c4ccco4)c3c2n1` the Potency was inconclusive: 22.4 µM [inhibitor, full curve, poor fit].
In the case of `COc1ccc(Br)c2c1-c1nc(NC(=O)c3ccccc3SC)sc1C2`, the Potency is reported as inconclusive: 39.8 µM [inhibitor, partial curve, poor fit].
With `CCCCCCOC(=O)C(C#N)c1nc2ccccc2nc1N1CCCCC1` (stereo unspecified) the “activity change, negative = inhibition” value was inactive: 7.66%.
